# Out of some 310,000 compounds screened, about 14,000 (4.5%) showed an effect of 50% or more. Effects have a minus sign here. The list shows a part of the results.
# Molecular target: human ether-à-go-go-related gene (hERG) potassium channel (human, UniProt Q12809)
# Experiment: primary screen, population patch clamp on CHO cells stably expressing hERG
# 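Note: peak tail current of the secondary pulse compared with the same well before compound.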
# Sequence of human ether-à-go-go-related gene (hERG) potassium channel (Q12809 whole entry, looked up): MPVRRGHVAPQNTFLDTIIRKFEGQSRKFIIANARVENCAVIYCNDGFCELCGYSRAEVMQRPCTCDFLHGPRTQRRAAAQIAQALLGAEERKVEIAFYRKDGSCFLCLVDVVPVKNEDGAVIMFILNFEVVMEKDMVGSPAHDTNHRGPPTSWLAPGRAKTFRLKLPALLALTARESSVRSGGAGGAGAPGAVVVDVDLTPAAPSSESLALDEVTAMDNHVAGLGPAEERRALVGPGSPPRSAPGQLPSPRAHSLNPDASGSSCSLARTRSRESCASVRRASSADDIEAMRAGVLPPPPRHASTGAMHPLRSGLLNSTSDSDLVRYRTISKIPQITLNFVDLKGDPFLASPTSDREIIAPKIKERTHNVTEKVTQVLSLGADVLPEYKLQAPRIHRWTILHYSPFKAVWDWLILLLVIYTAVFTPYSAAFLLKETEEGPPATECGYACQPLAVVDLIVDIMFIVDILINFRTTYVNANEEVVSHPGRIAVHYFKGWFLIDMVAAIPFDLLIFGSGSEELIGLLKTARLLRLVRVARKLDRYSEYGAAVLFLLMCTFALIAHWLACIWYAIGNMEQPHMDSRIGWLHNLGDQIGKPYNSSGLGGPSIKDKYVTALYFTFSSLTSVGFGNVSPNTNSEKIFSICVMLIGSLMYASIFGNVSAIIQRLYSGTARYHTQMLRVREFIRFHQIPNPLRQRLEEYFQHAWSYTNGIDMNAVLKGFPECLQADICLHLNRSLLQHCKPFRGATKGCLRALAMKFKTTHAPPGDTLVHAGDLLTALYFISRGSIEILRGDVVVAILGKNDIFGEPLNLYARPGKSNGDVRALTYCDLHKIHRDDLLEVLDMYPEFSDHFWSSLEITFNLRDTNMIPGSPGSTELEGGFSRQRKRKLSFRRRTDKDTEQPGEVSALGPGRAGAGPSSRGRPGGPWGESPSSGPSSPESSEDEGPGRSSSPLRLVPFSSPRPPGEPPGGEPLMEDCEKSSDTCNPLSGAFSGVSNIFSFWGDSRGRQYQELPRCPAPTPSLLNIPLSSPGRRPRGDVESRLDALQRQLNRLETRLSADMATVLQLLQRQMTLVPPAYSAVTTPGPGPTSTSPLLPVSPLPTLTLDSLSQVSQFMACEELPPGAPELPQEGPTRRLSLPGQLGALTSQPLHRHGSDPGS
row,Compound,"hERG current change (%, negative = inhibition) at 10uM [%]"
1,CCOc1ccc(NC(=O)CN(C)C(=O)CN2C(=O)C3CC=CCC3C2=O)cc1OCC (centres unmarked),13.9
2,CCOC(=O)c1sc(N=NC2=C(O)CC(C)(C)CC2=O)c(C(=O)OCC)c1C,-15.4
3,CN(c1ccc(C(=O)NCc2ccncc2)cc1)S(=O)(=O)c1ccc(Cl)cc1,-52.1
4,O=c1[nH]c2ccccc2c(=O)n1Cc1ccco1,-6.52
5,O=C1CN(C(=O)c2ccccc2F)C(c2ccc(F)cc2)c2cc(Br)ccc2N1 (centres unmarked),-23
6,CNC(=S)NNC(=O)c1sc(-c2cc(C)on2)nc1C,18
7,NNC(=O)CSc1cccc2cccnc12,9.09
8,COc1ccc(NS(=O)(=O)c2ccc(NC(=S)NC(=O)C(C)C)cc2)cc1,-2.92
9,C=CCc1ccc(OC(=O)NC2CCCCC2)c(OC)c1,-6.38
10,O=C(NC1CCCC1)c1cc(-c2cccc(Cl)c2)on1,5.93
11,COc1cc(CCC(=O)OCC(=O)Nc2ccc(F)c(F)c2)cc(OC)c1OC,-26.6
12,Cn1c(CN2CCOCC2)nc2cc(NC(=O)c3ccc(F)cc3)ccc21,-12.5
13,COc1ccc(C(=O)OCC(=O)NC2CCCCCC2)cc1OC,1.94
14,Cc1cnc(C(=O)OC(C)C(=O)Nc2cccc3ccccc23)cn1 (centres unmarked),16.7
15,O=C(CNC(=O)C1CC(=O)N(c2cccc3ccccc23)C1)Nc1ccccc1Br (centres unmarked),-9.51
16,Cn1c(SCC(=O)NC2CC2)nnc1-c1ccccc1Cl,12.1
17,CC(c1ccc(F)cc1)n1cc(S(=O)(=O)N2CCCC2)ccc1=O (centres unmarked),-14.7
18,C/C(=N\NC(=O)C1CC1)c1ccc(C)c(C)c1,16.2
19,Cc1ccc(-n2c(-c3cnccn3)n[nH]c2=S)cc1,-28.9
20,CN(CCc1ccccn1)C(=O)c1ccc(OC2CCN(CCc3ccccc3)CC2)cc1,-58.5
21,O=C1CC(c2ccco2)CC(O)=C1C=NCCN1CCN(C(=O)Nc2ccc(Cl)cc2)CC1 (centres unmarked),-66.4
22,COc1ccccc1-n1nnnc1SCC(=O)NC(=O)Cc1ccccc1,-8.32
23,CC(CC(=O)C1C(C)C=CCC1(C)C)NNC(N)=O (centres unmarked),28.7
24,O=P(OC1CCCCC1)(OC1CCCCC1)C(O)c1ccccc1 (centres unmarked),-12.6
25,C=CCc1c(C)nc(SCCC)[nH]c1=O,4.75
26,COc1ccc(/C=C/C(=O)Nc2cc(S(=O)(=O)N3CCCCC3)ccc2N2CCCCC2)cc1OC,4.11

# Source: PMC4336329 (PLoS ONE, 2015)
